# The supplement of paper PMC8728848
# The list shows a part of the results.
# How the values were obtained:
# Assay in all cases: glycan array binding signal (z-score within array); higher = stronger binding
# Conditions in all cases: glycan notation: IUPAC condensed, linker removed; mutation: R82H, R255H
# [1] = target: GalNAc(a1-3)GalNAc(b1-3)Gal(a1-4)Gal(b1-4)GlcNAc
# How it was run: (§1)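 Negative Z-scores can be read as non-binding. The Z-score is calculated within each array and then averaged across arrays of one protein sequence at different concentrations or buffers and across linkers. Arrays, 3228 in all, were curated from the Consortium for Functional Glycomics database and kept only where the protein sequence was available.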
# [2] = target: GalNAc(b1-3)Gal
# How it was run: as §1
# [3] = target: GalNAc(b1-3)Gal(a1-4)Gal(b1-4)GlcNAc
# How it was run: as §1
# [4] = target: GalNAc(b1-3)Gal(a1-4)Gal(b1-4)GlcNAc(b1-3)Gal(b1-4)Glc
# How it was run: as §1
# [5] = target: GalNAc(b1-3)Gal(a1-6)Gal(b1-4)Glc
# How it was run: as §1
# [6] = target: GalNAc(b1-3)GalNAc
# How it was run: as §1
# [7] = target: GalNAc(b1-3)GlcNAc
# How it was run: as §1
# [8] = target: GalNAc(b1-4)Gal(b1-4)Glc
# How it was run: as §1
# [9] = target: GalNAc(b1-4)GlcNAc
# How it was run: as §1
# [10] = target: GalNAc(b1-4)GlcNAc(b1-2)Man
# How it was run: as §1
# [11] = target: GalNAc(b1-4)GlcNAc(b1-2)Man(a1-3)[GalNAc(b1-4)GlcNAc(b1-2)Man(a1-6)]Man(b1-4)GlcNAc(b1-4)GlcNAc
# How it was run: as §1
# [12] = target: GalNAc(b1-4)GlcNAc(b1-3)GalNAc(b1-4)GlcNAc
# How it was run: as §1
# [13] = target: GalNAc(b1-4)GlcNAc6S
# How it was run: as §1
# [14] = target: GalNAc(b1-6)GalNAc
# How it was run: as §1
# [15] = target: GalNAc3S(b1-4)GlcNAc
# How it was run: as §1
# [16] = target: GalNAc3S(b1-4)GlcNAc3S
# How it was run: as §1
# [17] = target: GalNAc3S(b1-4)[Fuc(a1-3)]GlcNAc
# How it was run: as §1
# [18] = target: GalNAc4S6S(b1-4)GlcNAc
# How it was run: as §1
# [19] = target: GalNAc6S(b1-4)GlcNAc
# How it was run: as §1
# [20] = target: Glc(a1-4)Glc
# How it was run: as §1
# [21] = target: Glc(a1-4)Glc(a1-4)Glc(a1-4)Glc
# How it was run: as §1
# [22] = target: Glc(a1-6)Glc(a1-6)Glc
# How it was run: as §1
# [23] = target: Glc(a1-6)Glc(a1-6)Glc(a1-6)Glc
# How it was run: as §1
# [24] = target: Glc(b1-4)Glc
# How it was run: as §1
# [25] = target: Glc(b1-6)Glc
# How it was run: as §1
# [26] = target: GlcA(b1-3)Gal
# How it was run: as §1
# [27] = target: GlcA(b1-3)GlcNAc
# How it was run: as §1
# [28] = target: GlcA(b1-6)Gal
# How it was run: as §1
# [29] = target: GlcA3S(b1-3)Gal(b1-4)GlcNAc(b1-2)Man
# How it was run: as §1
# [30] = target: GlcA3S(b1-3)Gal(b1-4)GlcNAc(b1-3)Gal(b1-4)Glc
# How it was run: as §1
# [31] = target: GlcNAc(a1-3)Gal(b1-4)GlcNAc
# How it was run: as §1
# [32] = target: GlcNAc(a1-4)Gal(b1-3)GlcNAc
# How it was run: as §1
# [33] = target: GlcNAc(a1-4)Gal(b1-4)GalNAc
# How it was run: as §1
# [34] = target: GlcNAc(a1-4)Gal(b1-4)GlcNAc
# How it was run: as §1
# [35] = target: GlcNAc(a1-4)Gal(b1-4)GlcNAc(b1-3)Gal(b1-4)Glc
# How it was run: as §1
# [36] = target: GlcNAc(a1-4)Gal(b1-4)GlcNAc(b1-3)Gal(b1-4)GlcNAc
# How it was run: as §1
# [37] = target: GlcNAc(a1-4)Gal(b1-4)GlcNAc(b1-3)Gal(b1-4)GlcNAc(b1-3)Gal(b1-4)GlcNAc
# How it was run: as §1
# [38] = target: GlcNAc(a1-4)Gal(b1-4)GlcNAc(b1-3)Gal(b1-4)[Fuc(a1-3)]GlcNAc(b1-3)Gal(b1-4)[Fuc(a1-3)]GlcNAc
# How it was run: as §1
binder,measurement,setting,value
"Gal 8 (Mus musculus), Q9JL15 (protein) MGGSHHHHHHGMASMLSLNNLQNIIYNPIIPYVGTITEQLKPGSLIVIRGHVPKDSERFQVDFQLGNSLKPRADVAFHFNPHFKRSSCIVCNTLTQEKWGWEEITYDMPFRKEKSFEIVFMVLKNKFQVAVNGRHVLLYAHRISPEQIDTVGIYGKVNIHSIGFRFSSASALPHTLGDLQSMETSALGLTQINRENIQKPGKLQLSLPFEARLNASMGPGRTVVIKGEVNTNARSFNVDLVAGKTRDIALHLNPHLNVKAFVRNSFLQDAWGEEERNITCFPFSSGMYFEMIIYCDVREFKVAINGVHSLEYKHRFKDLSSIDTLSVDGDIRLLDVRSW",glycan array binding signal (z-score),[1],-0.222
same,glycan array binding signal (z-score),[2],-0.136
same,glycan array binding signal (z-score),[3],-0.24
same,glycan array binding signal (z-score),[4],-0.261
same,glycan array binding signal (z-score),[5],-0.265
same,glycan array binding signal (z-score),[6],-0.259
same,glycan array binding signal (z-score),[7],-0.234
same,glycan array binding signal (z-score),[8],-0.212
same,glycan array binding signal (z-score),[9],-0.245
same,glycan array binding signal (z-score),[10],-0.26
same,glycan array binding signal (z-score),[11],-0.194
same,glycan array binding signal (z-score),[12],-0.271
same,glycan array binding signal (z-score),[13],-0.253
same,glycan array binding signal (z-score),[14],0.023
same,glycan array binding signal (z-score),[15],-0.264
same,glycan array binding signal (z-score),[16],-0.249
same,glycan array binding signal (z-score),[17],-0.297
same,glycan array binding signal (z-score),[18],-0.218
same,glycan array binding signal (z-score),[19],-0.276
same,glycan array binding signal (z-score),[20],-0.212
same,glycan array binding signal (z-score),[21],-0.205
same,glycan array binding signal (z-score),[22],-0.23
same,glycan array binding signal (z-score),[23],-0.178
same,glycan array binding signal (z-score),[24],-0.224
same,glycan array binding signal (z-score),[25],-0.229
same,glycan array binding signal (z-score),[26],-0.249
same,glycan array binding signal (z-score),[27],-0.232
same,glycan array binding signal (z-score),[28],-0.285
same,glycan array binding signal (z-score),[29],-0.264
same,glycan array binding signal (z-score),[30],-0.198
same,glycan array binding signal (z-score),[31],-0.284
same,glycan array binding signal (z-score),[32],-0.292
same,glycan array binding signal (z-score),[33],-0.158
same,glycan array binding signal (z-score),[34],-0.279
same,glycan array binding signal (z-score),[35],-0.27
same,glycan array binding signal (z-score),[36],-0.253
same,glycan array binding signal (z-score),[37],-0.277
same,glycan array binding signal (z-score),[38],-0.097
